Structures can show the parent of a compound that is named as a salt. This is one part of the list. Rule as the data show it: active = -2 or less and inactive = the rest. Many values rest on one well or one pass, so single values are uncertain.
What follows are molecules tested on hPSC-derived cortical neurons (WA09) (assay: nuclei number (viability) z-score; higher = more surviving cells). Details: 5 µM; treatment: days 7-14 after plating, readout day 21.
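Also: nuclei counted from DAPI counterstain by automated high-content image analysis, four fields per well at ×20 in 384-well plates, with sequential b-score then z-score normalization.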

| SMILES | nuclei number (z-score) |
| --- | --- |
| O=c1c(-c2ccc(O)cc2)coc2cc(O)cc(O)c12 [Genistein] | inactive: -0.0117 |
| C=CCc1ccc(O)c(-c2ccc(O)c(CC=C)c2)c1 [Honokiol] | inactive: 0.443 |
| CNC(=C[N+](=O)[O-])NCCSCc1ccc(CN(C)C)o1 [Ranitidine] | inactive: -0.499 |
| COC(=O)[C@H]1[C@H]2C[C@@H]3c4[nH]c5cc(OC)ccc5c4CCN3C[C@H]2C[C@@H](OC(=O)c2cc(OC)c(OC)c(OC)c2)[C@@H]1OC [Reserpine] | active: -3.01 |
| COc1cc2c(cc1OC)-c1cc3ccc(OC)c(OC)c3c[n+]1CC2 [Palmatine chloride] | active: -4.08 |
| Cc1cn([C@@H]2C[C@@H](O)[C@H](CO)O2)c(=O)[nH]c1=O [Telbivudine] | inactive: 0.323 |
| NC(=O)c1ncn([C@@H]2O[C@H](CO)[C@@H](O)[C@H]2O)c1O [Mizoribine] | inactive: 0.222 |
| O=C(N/N=C/c1ccc([N+](=O)[O-])o1)c1ccc(O)cc1 [Nifuroxazide] | inactive: 2.5 |
| Cc1cc(NC(=O)c2cccc(NC(=O)/C=C/CN(C)C)c2)ccc1Nc1nccc(-c2cccnc2)n1 | inactive: -1.2 |
| CCOc1cc2ncc(C#N)c(Nc3ccc(OCc4ccccn4)c(Cl)c3)c2cc1NC(=O)/C=C/CN(C)C [Neratinib (HKI-272)] | active: -6.96 |
| Cc1cccc(Nc2cc(Cl)nc(SCC(=O)O)n2)c1C | inactive: 0.474 |
| Cn1cc(C2=C(c3ccc(Cl)cc3Cl)C(=O)NC2=O)c2ccccc21 | inactive: 1.39 |
| OCc1ccc(O[C@@H]2O[C@H](CO)[C@@H](O)[C@H](O)[C@H]2O)cc1 [Gastrodin] | inactive: -0.48 |
| O=C(NC(NC(=S)Nc1ccc(F)c([N+](=O)[O-])c1)C(Cl)(Cl)Cl)C(c1ccccc1)c1ccccc1 (stereo unspecified) | inactive: 2.57 |
| CCc1cc(C(N)=S)ccn1 [Ethionamide] | inactive: 0.0544 |
| CCc1c2c(nc3ccc(OC(=O)N4CCC(N5CCCCC5)CC4)cc13)-c1cc3c(c(=O)n1C2)COC(=O)[C@]3(O)CC [Irinotecan HCl Trihydrate] | inactive: -0.227 |
| CCc1c2c(nc3ccc(OC(=O)N4CCC(N5CCCCC5)CC4)cc13)-c1cc3c(c(=O)n1C2)COC(=O)[C@]3(O)CC [Irinotecan] | inactive: 1.09 |
| COC(=O)c1ccc2c(c1)[nH]c1ncnc(NCCCN3CCCCC3)c12 | inactive: 0.857 |

| SMILES | nuclei number (z-score) |
| --- | --- |
| C[C@H]1[C@H](NC(=O)/C(=N\OC(C)(C)C(=O)O)c2csc(N)n2)C(=O)N1S(=O)(=O)O [Aztreonam] | inactive: -1.03 |
| OC[C@H]1O[C@@H](OCCc2ccc(O)cc2)[C@H](O)[C@@H](O)[C@@H]1O [Salidroside] | inactive: 0.289 |
| CCC[C@H](NC(=O)/C(C#N)=C/c1cccc(Br)n1)c1ccccc1 [Degrasyn (WP1130)] | inactive: 1.12 |
| CCOC(=O)NCCCC(=O)NCCc1ccccc1 | inactive: -0.329 |
| CC(C)(O/N=C(\C(=O)N[C@@H]1C(=O)N2C(C(=O)[O-])=C(C[n+]3ccccc3)CS[C@H]12)c1csc(N)n1)C(=O)O [Ceftazidime Pentahydrate] | inactive: -0.494 |
| C=C1/C(=C\C=C2/CCC[C@]3(C)[C@@H]([C@H](C)CCCC(C)(C)O)CC[C@@H]23)C[C@@H](O)C[C@@H]1O [Calcitriol] | inactive: 0.184 |
| C[C@]12C=CC(=O)C=C1CC[C@@H]1[C@@H]2C(=O)C[C@@]2(C)[C@H]1CC[C@]2(O)C(=O)CO [Prednisone] | inactive: 3.81 |
| COC(=O)CC[C@H](NC(=O)[C@H](CC(=O)OC)NC(=O)OCc1ccccc1)C(=O)N[C@H](C(=O)N[C@@H](CC(=O)OC)C(=O)CF)C(C)C | inactive: 0.0469 |
| c1ccc2c(Oc3nc(Nc4ccc(N5CCOCC5)cc4)c4ncn(C5CCCCC5)c4n3)cccc2c1 [Purmorphamine] | inactive: 2.73 |
| CCOC(=O)CCC(=O)O[C@H]1[C@H](O[C@@H]2[C@@H](C)[C@H](O[C@H]3C[C@@](C)(OC)[C@@H](O)[C@H](C)O3)[C@@H](C)C(=O)O[C@H](CC)[C@@](C)(O)[C@H](O)[C@@H](C)C(=O)[C@H](C)C[C@@]2(C)O)O[C@H](C)C[C@@H]1N(C)C [Erythromycin Ethylsuccinate] | inactive: 0.478 |
| COc1cc(NC(=O)c2ccc(-c3ccc(Cl)cc3)o2)cc(OC)c1 | inactive: 0.0055 |
| CC1(C)[C@@H](O[C@H]2O[C@H](C(=O)O)[C@@H](O)[C@H](O)[C@H]2O[C@@H]2O[C@H](C(=O)O)[C@@H](O)[C@H](O)[C@H]2O)CC[C@]2(C)[C@H]3C(=O)C=C4[C@@H]5C[C@@](C)(C(=O)O)CC[C@]5(C)CC[C@@]4(C)[C@]3(C)CC[C@@H]12 [Glycyrrhizin (Glycyrrhizic Acid)] | inactive: -0.204 |
| CC1(C)[C@@H](O[C@H]2O[C@H](C(=O)O)[C@@H](O)[C@H](O)[C@H]2O[C@@H]2O[C@H](C(=O)O)[C@@H](O)[C@H](O)[C@H]2O)CC[C@]2(C)[C@H]3C(=O)C=C4[C@@H]5C[C@@](C)(C(=O)O)CC[C@]5(C)CC[C@@]4(C)[C@]3(C)CC[C@@H]12 [Ammonium Glycyrrhizinate] | inactive: -0.454 |
| CCC1=C[C@@H]2CN(C1)Cc1c([nH]c3ccccc13)[C@@](C(=O)OC)(c1cc3c(cc1OC)N(C)[C@H]1[C@@](O)(C(=O)OC)[C@H](OC(C)=O)[C@]4(CC)C=CCN5CC[C@]31[C@@H]54)C2 [Vinorelbine Tartrate] | active: -5.26 |
| CC(C)CN(C[C@@H](O)[C@H](Cc1ccccc1)NC(=O)O[C@H]1CCOC1)S(=O)(=O)c1ccc(N)cc1 [Amprenavir] | inactive: 0.899 |
| CNC(=C[N+](=O)[O-])NCCSCc1csc(CN(C)C)n1 [Nizatidine] | inactive: -0.235 |
| OCc1ccccc1 [Benzyl alcohol] | inactive: 0.671 |
| CCn1cc(C(=O)O)c(=O)c2cc(F)c(N3CCNC(C)C3)c(F)c21 (stereo unspecified) [Lomefloxacin HCl] | inactive: -0.555 |
